Article PMC5940305, “The Rab11-binding protein RELCH/KIAA1468 controls intracellular cholesterol distribution” (The Journal of Cell Biology, 2018)
Results are given in words; binding and its absence hold for the method and conditions named. For part of these data: Binding seen in cells or lysates may run through a third protein. Some binding calls cover weakened binding; strength is not graded here. For part of these data: Where a sequence is shown, tags or fusion partners need not be part of it.

Protein sequences, listed by entry. Tags and fused reporters are not part of them. Lines headed by an entry give the natural chain unless they say otherwise; changes in a name come on top.
UniProt P62491: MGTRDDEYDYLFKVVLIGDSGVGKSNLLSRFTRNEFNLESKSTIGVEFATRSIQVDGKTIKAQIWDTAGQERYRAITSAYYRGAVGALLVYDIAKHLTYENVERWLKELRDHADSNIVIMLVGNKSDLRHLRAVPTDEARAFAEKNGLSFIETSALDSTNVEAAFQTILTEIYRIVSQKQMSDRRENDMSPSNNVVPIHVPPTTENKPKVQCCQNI

T1: Flag-OSBP, full length (human) (UniProt P22059)
T1 sequence: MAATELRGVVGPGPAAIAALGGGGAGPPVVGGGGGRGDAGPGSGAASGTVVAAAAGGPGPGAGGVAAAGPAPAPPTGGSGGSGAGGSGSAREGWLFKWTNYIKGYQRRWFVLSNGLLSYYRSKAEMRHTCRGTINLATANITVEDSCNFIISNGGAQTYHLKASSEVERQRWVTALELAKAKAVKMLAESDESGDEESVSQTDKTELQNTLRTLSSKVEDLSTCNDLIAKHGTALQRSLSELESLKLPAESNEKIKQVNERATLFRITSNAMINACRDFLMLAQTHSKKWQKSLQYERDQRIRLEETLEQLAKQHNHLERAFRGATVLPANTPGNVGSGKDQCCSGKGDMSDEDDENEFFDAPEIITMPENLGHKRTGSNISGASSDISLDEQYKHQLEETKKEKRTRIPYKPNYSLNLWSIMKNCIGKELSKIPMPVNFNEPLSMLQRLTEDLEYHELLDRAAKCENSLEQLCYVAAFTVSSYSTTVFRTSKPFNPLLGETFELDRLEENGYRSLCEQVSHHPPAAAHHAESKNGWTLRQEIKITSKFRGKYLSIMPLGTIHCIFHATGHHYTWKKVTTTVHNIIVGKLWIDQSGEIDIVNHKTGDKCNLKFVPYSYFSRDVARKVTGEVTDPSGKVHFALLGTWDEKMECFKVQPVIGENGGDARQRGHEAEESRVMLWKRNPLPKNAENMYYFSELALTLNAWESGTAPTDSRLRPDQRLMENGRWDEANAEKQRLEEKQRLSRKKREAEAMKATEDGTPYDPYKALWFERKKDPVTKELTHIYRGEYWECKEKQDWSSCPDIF


How the values were obtained:
[1] = molecular target: T1, Flag-OSBP, full length (human); assay: co-IP; Flp-In–293 cells coexpressing Flag-, EGFP- and Myc-tagged Rab11a, RELCH and OSBP; anti-Flag M2 affinity gel, immunoblot with EGFP, Myc and Flag antibodies
[2] = molecular target: Gal4BD-Rab11a (Q70A), GTP-locked (not stated (human or mouse cDNA cloned)) (UniProt P62491); assay: two-hybrid; S. cerevisiae PJ69-4A, Gal4AD (pACT2) RELCH constructs and Gal4BD (pFBT9) GTP-locked Rabs; growth on QDO plates, 3 d at 30°C
[3] = molecular target: T1, Flag-OSBP, full length (human); assay: co-IP; HEK293FT cells coexpressing Flag-tagged OSBP and Myc-tagged RELCH constructs; anti-Flag M2 affinity gel, elution with Flag-peptide, immunoblot with Myc and Flag antibodies

Molecule	binding [2]	binding [3]	also measured
EGFP-tagged human Rab11a Q70A (from UniProt P62491 1-216)			binding [1]: binds
Gal4AD-RELCH, full length (protein, UniProt Q148V7 1-1216) MAAMAPGGGGSGSGVNPFLSDSDEDDDEVAATEDRRAGLRLGAGVGLDPGSAGSLSPQDPMALGSSARPGLAVEMSAAPAALGGSGETPARLSIDAIAAQLLRDQYLLTALELHTELLESGRELPRLRDYFSNPGNFERQSGTPPGMGAPGIPGASIVGGAGGREPSTTSGGGQLNRAGSISTLDSLDFARYSDDGNRETDERVAVLEFELRKAKETIQALRANLTKAAEHEVPLQERKNYKSSPEIQEPIKPLEKRALNFLVNEFLLKNNYKLTSITFSDENDDQDFELWDDVGLNIPKPPDLLQLYRDFGNHQVTGKDLVDVASGVDEDELEALTPILGNVPPTLDTPLPIENTLLVQKLEDKISLLNNEKWSLMEQIRRLESEMDILKAEHFATPAVGDSVQPSLVWSSQKDSEDNRQSPAVNSSDQEKTKDVHLEIPDAADSFIPKENSSGSFPRKEREELPPSSVSNKTTLHFDQPNRKLSPAFHQALLSFCRMSADSRLGSEVSRIADSEKSVMLMLGRCLPHIVPNVLLAKREELIPLILCTACLHPEPKERDQLLHILFNLIKRPDDEQRQMILTGCVAFARHVGPTRVEAELLPQCWEQINHKYPERRLLVAESCGALAPYLPKEIRSSLVLSMLQQMLMEDKADLVREAVIKSLGIIMGYIDDPDKYQQGFELLLSALGDPSERVVSATHQVFLPAYAAWTTELGNLQSHLIPTLLNKIEKLLREGEHGLDEHKLHMYLSALQSLIPSLFALVLQNAPFSSKAKLHGEVPHIEVTRFPRPMSPLQDVSTIIGSREQLAVLLQLYDYQLEHEGTTGWESLLWVVNQLLPQLIEIVGKINVTSTACVHEFSRFFWRLCRTFGKIFTNTKVKPQFQEILRLSEENIDSSAGNGVLTKATVPIYATGVLTCYIQEEDRKLLVGFLEDVMTLLSLSHAPLDSLKASFVELGANPAYHELLLTVLWYGVVHTSALVRCTAARMFELLVKGVNETLVAQRVVPALITLSSDPEISVRIATIPAFGTIMETVIQRELLERVKMQLASFLEDPQYQDQHSLHTEVIRTFGRVGPNAEPRFRDEFVIPHLHKLALVNNLQIVDSKKLDIATHLFEAYSALSCCFISEDLMVNHFLPGLRCLRTDMEHLSPEHEVILSSMIKECEQKVENKTVQEPPGSMSIAASLVSEDTKTKFLNKMGQLTTSGAMLANVFQRKK	binds		
Myc-tagged RELCH 1,143–1,216 (domain or fragment, UniProt Q148V7 1143-1216) TDMEHLSPEHEVILSSMIKECEQKVENKTVQEPPGSMSIAASLVSEDTKTKFLNKMGQLTTSGAMLANVFQRKK		no binding	
Myc-tagged RELCH 1–496 (domain or fragment, UniProt Q148V7 1-496) MAAMAPGGGGSGSGVNPFLSDSDEDDDEVAATEDRRAGLRLGAGVGLDPGSAGSLSPQDPMALGSSARPGLAVEMSAAPAALGGSGETPARLSIDAIAAQLLRDQYLLTALELHTELLESGRELPRLRDYFSNPGNFERQSGTPPGMGAPGIPGASIVGGAGGREPSTTSGGGQLNRAGSISTLDSLDFARYSDDGNRETDERVAVLEFELRKAKETIQALRANLTKAAEHEVPLQERKNYKSSPEIQEPIKPLEKRALNFLVNEFLLKNNYKLTSITFSDENDDQDFELWDDVGLNIPKPPDLLQLYRDFGNHQVTGKDLVDVASGVDEDELEALTPILGNVPPTLDTPLPIENTLLVQKLEDKISLLNNEKWSLMEQIRRLESEMDILKAEHFATPAVGDSVQPSLVWSSQKDSEDNRQSPAVNSSDQEKTKDVHLEIPDAADSFIPKENSSGSFPRKEREELPPSSVSNKTTLHFDQPNRKLSPAFHQALLSF		no binding	

Now from value to molecule, other results behind:

binding [2]	binding [3]	Molecule	also measured
	binds	Myc-tagged RELCH 904–1,142 (domain or fragment, UniProt Q148V7 904-1142) KATVPIYATGVLTCYIQEEDRKLLVGFLEDVMTLLSLSHAPLDSLKASFVELGANPAYHELLLTVLWYGVVHTSALVRCTAARMFELLVKGVNETLVAQRVVPALITLSSDPEISVRIATIPAFGTIMETVIQRELLERVKMQLASFLEDPQYQDQHSLHTEVIRTFGRVGPNAEPRFRDEFVIPHLHKLALVNNLQIVDSKKLDIATHLFEAYSALSCCFISEDLMVNHFLPGLRCLR	
no binding		RELCH Δ (497–779) (protein, UniProt Q148V7) MAAMAPGGGGSGSGVNPFLSDSDEDDDEVAATEDRRAGLRLGAGVGLDPGSAGSLSPQDPMALGSSARPGLAVEMSAAPAALGGSGETPARLSIDAIAAQLLRDQYLLTALELHTELLESGRELPRLRDYFSNPGNFERQSGTPPGMGAPGIPGASIVGGAGGREPSTTSGGGQLNRAGSISTLDSLDFARYSDDGNRETDERVAVLEFELRKAKETIQALRANLTKAAEHEVPLQERKNYKSSPEIQEPIKPLEKRALNFLVNEFLLKNNYKLTSITFSDENDDQDFELWDDVGLNIPKPPDLLQLYRDFGNHQVTGKDLVDVASGVDEDELEALTPILGNVPPTLDTPLPIENTLLVQKLEDKISLLNNEKWSLMEQIRRLESEMDILKAEHFATPAVGDSVQPSLVWSSQKDSEDNRQSPAVNSSDQEKTKDVHLEIPDAADSFIPKENSSGSFPRKEREELPPSSVSNKTTLHFDQPNRKLSPAFHQALLSFPHIEVTRFPRPMSPLQDVSTIIGSREQLAVLLQLYDYQLEHEGTTGWESLLWVVNQLLPQLIEIVGKINVTSTACVHEFSRFFWRLCRTFGKIFTNTKVKPQFQEILRLSEENIDSSAGNGVLTKATVPIYATGVLTCYIQEEDRKLLVGFLEDVMTLLSLSHAPLDSLKASFVELGANPAYHELLLTVLWYGVVHTSALVRCTAARMFELLVKGVNETLVAQRVVPALITLSSDPEISVRIATIPAFGTIMETVIQRELLERVKMQLASFLEDPQYQDQHSLHTEVIRTFGRVGPNAEPRFRDEFVIPHLHKLALVNNLQIVDSKKLDIATHLFEAYSALSCCFISEDLMVNHFLPGLRCLRTDMEHLSPEHEVILSSMIKECEQKVENKTVQEPPGSMSIAASLVSEDTKTKFLNKMGQLTTSGAMLANVFQRKK	
no binding		RELCH (1–496), two-hybrid construct (domain or fragment, UniProt Q148V7 1-496) MAAMAPGGGGSGSGVNPFLSDSDEDDDEVAATEDRRAGLRLGAGVGLDPGSAGSLSPQDPMALGSSARPGLAVEMSAAPAALGGSGETPARLSIDAIAAQLLRDQYLLTALELHTELLESGRELPRLRDYFSNPGNFERQSGTPPGMGAPGIPGASIVGGAGGREPSTTSGGGQLNRAGSISTLDSLDFARYSDDGNRETDERVAVLEFELRKAKETIQALRANLTKAAEHEVPLQERKNYKSSPEIQEPIKPLEKRALNFLVNEFLLKNNYKLTSITFSDENDDQDFELWDDVGLNIPKPPDLLQLYRDFGNHQVTGKDLVDVASGVDEDELEALTPILGNVPPTLDTPLPIENTLLVQKLEDKISLLNNEKWSLMEQIRRLESEMDILKAEHFATPAVGDSVQPSLVWSSQKDSEDNRQSPAVNSSDQEKTKDVHLEIPDAADSFIPKENSSGSFPRKEREELPPSSVSNKTTLHFDQPNRKLSPAFHQALLSF	
	binds	Myc-tagged RELCH 904–1,216 (domain or fragment, UniProt Q148V7 904-1216) KATVPIYATGVLTCYIQEEDRKLLVGFLEDVMTLLSLSHAPLDSLKASFVELGANPAYHELLLTVLWYGVVHTSALVRCTAARMFELLVKGVNETLVAQRVVPALITLSSDPEISVRIATIPAFGTIMETVIQRELLERVKMQLASFLEDPQYQDQHSLHTEVIRTFGRVGPNAEPRFRDEFVIPHLHKLALVNNLQIVDSKKLDIATHLFEAYSALSCCFISEDLMVNHFLPGLRCLRTDMEHLSPEHEVILSSMIKECEQKVENKTVQEPPGSMSIAASLVSEDTKTKFLNKMGQLTTSGAMLANVFQRKK	
	binds	Myc-tagged RELCH 497–1,216 (domain or fragment, UniProt Q148V7 497-1216) CRMSADSRLGSEVSRIADSEKSVMLMLGRCLPHIVPNVLLAKREELIPLILCTACLHPEPKERDQLLHILFNLIKRPDDEQRQMILTGCVAFARHVGPTRVEAELLPQCWEQINHKYPERRLLVAESCGALAPYLPKEIRSSLVLSMLQQMLMEDKADLVREAVIKSLGIIMGYIDDPDKYQQGFELLLSALGDPSERVVSATHQVFLPAYAAWTTELGNLQSHLIPTLLNKIEKLLREGEHGLDEHKLHMYLSALQSLIPSLFALVLQNAPFSSKAKLHGEVPHIEVTRFPRPMSPLQDVSTIIGSREQLAVLLQLYDYQLEHEGTTGWESLLWVVNQLLPQLIEIVGKINVTSTACVHEFSRFFWRLCRTFGKIFTNTKVKPQFQEILRLSEENIDSSAGNGVLTKATVPIYATGVLTCYIQEEDRKLLVGFLEDVMTLLSLSHAPLDSLKASFVELGANPAYHELLLTVLWYGVVHTSALVRCTAARMFELLVKGVNETLVAQRVVPALITLSSDPEISVRIATIPAFGTIMETVIQRELLERVKMQLASFLEDPQYQDQHSLHTEVIRTFGRVGPNAEPRFRDEFVIPHLHKLALVNNLQIVDSKKLDIATHLFEAYSALSCCFISEDLMVNHFLPGLRCLRTDMEHLSPEHEVILSSMIKECEQKVENKTVQEPPGSMSIAASLVSEDTKTKFLNKMGQLTTSGAMLANVFQRKK	
